Residue numbers refer to the chain shown, from its start. No constants are given. Whether binding was seen depends on the method and setting. Binding seen in cells or lysates may run through a third protein. Some entries that bind do so weakly or less than the wild type.
Experiments:
[1] = molecular target: T1, HMHA2* BDA2* ST-CDAN1 (human) (UniProt Q8IWY9); assay: pull-down; Strep-Tactin pulldown of transiently transfected ST-CDAN1 variants from Flp-In 293 T-REx lysates; endogenous ASF1A, ASF1B and CDIN1 detected by immunoblotting; IP buffer with 1% Triton X-100, 1 hr at 4 °C
T1 sequence: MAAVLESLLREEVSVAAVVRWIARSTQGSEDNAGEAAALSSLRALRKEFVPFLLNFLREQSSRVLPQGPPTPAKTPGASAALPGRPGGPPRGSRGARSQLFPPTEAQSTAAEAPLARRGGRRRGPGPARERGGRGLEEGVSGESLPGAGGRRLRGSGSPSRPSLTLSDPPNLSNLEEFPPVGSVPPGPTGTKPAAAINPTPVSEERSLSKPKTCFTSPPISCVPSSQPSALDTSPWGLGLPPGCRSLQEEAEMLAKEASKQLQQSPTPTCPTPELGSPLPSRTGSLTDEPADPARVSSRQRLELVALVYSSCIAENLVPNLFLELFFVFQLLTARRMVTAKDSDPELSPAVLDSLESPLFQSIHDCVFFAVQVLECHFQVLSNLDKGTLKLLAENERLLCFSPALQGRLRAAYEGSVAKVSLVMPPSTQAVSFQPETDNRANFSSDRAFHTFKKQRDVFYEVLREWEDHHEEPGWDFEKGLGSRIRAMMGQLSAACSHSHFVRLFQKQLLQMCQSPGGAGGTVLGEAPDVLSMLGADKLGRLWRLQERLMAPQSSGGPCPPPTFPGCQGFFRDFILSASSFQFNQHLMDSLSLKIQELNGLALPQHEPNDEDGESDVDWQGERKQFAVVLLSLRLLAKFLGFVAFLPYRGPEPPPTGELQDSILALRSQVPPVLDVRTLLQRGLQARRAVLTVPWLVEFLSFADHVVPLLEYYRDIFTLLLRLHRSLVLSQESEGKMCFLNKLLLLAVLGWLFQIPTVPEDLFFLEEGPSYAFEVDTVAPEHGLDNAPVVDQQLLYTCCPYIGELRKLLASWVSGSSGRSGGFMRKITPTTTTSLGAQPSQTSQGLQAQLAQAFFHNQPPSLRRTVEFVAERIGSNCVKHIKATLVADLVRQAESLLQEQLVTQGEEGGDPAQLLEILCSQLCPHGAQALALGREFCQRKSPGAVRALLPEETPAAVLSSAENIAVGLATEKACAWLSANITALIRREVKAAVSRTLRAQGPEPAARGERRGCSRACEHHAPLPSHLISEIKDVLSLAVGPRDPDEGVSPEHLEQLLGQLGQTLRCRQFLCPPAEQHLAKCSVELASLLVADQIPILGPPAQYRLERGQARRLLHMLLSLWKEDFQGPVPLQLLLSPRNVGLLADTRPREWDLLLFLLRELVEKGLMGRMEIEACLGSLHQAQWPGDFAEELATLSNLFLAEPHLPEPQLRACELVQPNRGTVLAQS

Chains of the proteins cited; added tags and fusions are not shown.
UniProt Q9Y294: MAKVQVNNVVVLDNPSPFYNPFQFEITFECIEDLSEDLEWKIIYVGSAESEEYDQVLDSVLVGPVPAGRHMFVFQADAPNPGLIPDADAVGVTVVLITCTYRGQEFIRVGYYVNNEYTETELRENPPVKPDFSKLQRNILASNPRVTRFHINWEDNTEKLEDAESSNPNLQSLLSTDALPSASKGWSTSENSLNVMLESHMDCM
UniProt Q9NVP2: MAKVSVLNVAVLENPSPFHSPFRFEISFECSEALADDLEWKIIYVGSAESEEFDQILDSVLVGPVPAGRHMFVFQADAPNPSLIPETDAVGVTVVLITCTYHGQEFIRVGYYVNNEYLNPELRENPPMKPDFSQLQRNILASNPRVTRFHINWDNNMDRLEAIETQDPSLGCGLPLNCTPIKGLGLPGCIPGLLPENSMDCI

[2] = molecular target: T2, Strep-CDAN1 HMHA1* BDA2* (human) (UniProt Q8IWY9); assay: as above
T2 sequence: T1 sequence with A251R, A255R, A258R, R541A, R544A, R548A

Substance	binding [1]	binding [2]
endogenous ASF1A (from UniProt Q9Y294 1-204)	binds	no binding
endogenous ASF1B (from UniProt Q9NVP2 1-202)	binds	no binding

Source: article PMC11911400, “Mechanism of ASF1 engagement by CDAN1” (Nature Communications, 2025)
